In PubChem BioAssay AID1461 (National Center for Advancing Translational Sciences (NCATS), 2008):
In all, about 220,000 compounds went through this assay and about 2,300 (1%) were called active. This list was built around the results that the source calls inconclusive (neither active nor inactive); the mix of calls is not that of the screen. The call rests on the fitted dose curve; in most records, active means well fitted inhibition curve with a large enough effect; inconclusive means small, poorly fitted or top-dose-only effect, or effect the other way; inactive means no such curve, though single readings can be large or run the other way. Potencies of inconclusive entries are left out as doubtful fits.

target: Neuropeptide S receptor (Homo sapiens) (UniProt Q6W5P4); experiment: qHTS Assay for Antagonists of the Neuropeptide S Receptor: cAMP Signal Transduction; conditions: CHO-NPSR cells, cAMP TR-FRET, antagonist mode; activity change, negative = inhibition: at 38.3 µM (top of the series) unless noted; further: nearly all actives have a fitted effect of over 50% in size
On the % scale 0 is the no-effect control and ±100 the full control effect; potency means the concentration at half of the fitted maximal effect; tags describe the fitted curve by direction and shape.

UniProt Q6W5P4, sequence (Q6W5P4 whole entry, looked up): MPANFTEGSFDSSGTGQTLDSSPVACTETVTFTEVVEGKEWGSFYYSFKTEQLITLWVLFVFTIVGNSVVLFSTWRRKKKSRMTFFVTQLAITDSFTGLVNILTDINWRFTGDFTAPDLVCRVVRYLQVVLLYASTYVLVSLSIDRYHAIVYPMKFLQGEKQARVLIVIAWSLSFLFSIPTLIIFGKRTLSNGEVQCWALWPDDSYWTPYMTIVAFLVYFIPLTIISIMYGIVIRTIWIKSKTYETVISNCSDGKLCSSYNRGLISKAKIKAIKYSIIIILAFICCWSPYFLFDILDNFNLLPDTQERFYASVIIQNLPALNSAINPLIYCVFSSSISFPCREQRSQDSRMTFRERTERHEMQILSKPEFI

| SMILES | Potency | activity change, negative = inhibition |
| --- | --- | --- |
| CC(=NCc1ccco1)c1c(C(F)(F)F)[nH]n(-c2nc3ccccc3s2)c1=O | inconclusive [inhibitor, single point] | – |
| CC(/C=C/C=C/c1ccccc1)=N/NC(=O)c1ccc2c(c1)OCCO2 | – | inactive: -11% |
| Cc1cccc(OCCSc2ncnc3nc[nH]c23)c1 | inconclusive [inhibitor, single point] | – |
| CCOC(=O)C1=C(CC)Nc2ccccc2N=C1NC(=O)c1oc2ccccc2c1C | inconclusive [inhibitor, single point] | – |
| Cc1c(Cl)cccc1NC(=S)NCC(c1cccnc1)N(C)C (stereo unspecified) | – | inactive: 5.14% |
| COC(=O)C(CCSC)NC(=O)c1cc2c(n(-c3ccccc3)c1=O)CC(C)(C)CC2=O (stereo unspecified) | – | inactive: -5.99% |
| CCOc1ccc(C(=O)OCC(=O)Nc2cc(C)on2)cc1OCC | inconclusive [activator, single point] | – |
| Cc1ccc(C(C)C)cc1NC(=O)Nc1ccc([N+](=O)[O-])cc1 | active: 10 µM | – |
| COc1cc2c3nnc(-c4ccccc4)c-3cn(Cc3ccc(F)cc3)c2cc1OC | inconclusive [inhibitor, single point] | – |
| Cc1ccc(SC2=C(Sc3ccc(C)cc3)C(=O)c3ccccc3C2=O)cc1 | inconclusive [activator, partial curve] | – |
| O=C(CN(C1CC1)S(=O)(=O)c1ccc(S(=O)(=O)NC2CCCCC2)cc1)Nc1ccccc1 | inconclusive [inhibitor, single point] | – |
| CCN(CC)CC(=O)Nc1sc2c(c1C(=O)c1ccccc1OC)CCC2 | inconclusive [activator, partial curve] | – |
| CC(C)Nc1nc(-c2ccncc2)nc(-c2ccc(Cl)cc2)c1C#N | inconclusive [inhibitor, single point] | – |
| Cc1ccccc1OCC(=O)NNC=O | inconclusive [inhibitor, single point] | – |
| COc1ccccc1C(=O)NCC(=O)n1nc(C)cc1C | – | inactive: -1.49% [at 46.1 µM] |
| CSc1nc2ccc(S(=O)(=O)N3CCc4ccccc43)cc2s1 | inconclusive [inhibitor, single point] | – |
| CCOC(=O)C1CCN(c2c(NCCC(C)C)c(=O)c2=O)CC1 | – | inactive: 5.59% |
| COC(=O)c1nc2ccc(N3CCOCC3)cc2c(C)c1C(=O)OC | – | inactive: 1.06% |
| COc1cc(NC(=O)C(=O)N2CCN(C)CC2)c(OC)cc1Cl | – | inactive: 32.3% |
| Cc1cc(C)c(/C=C2\C(=O)Nc3ccccc32)[nH]1 | inconclusive [activator, single point] | – |
| CCc1cc2cccc(C)c2nc1SCC(=O)N1CCN(C(=O)c2ccco2)CC1 | inconclusive [inhibitor, single point] | – |
| C=CCN1C(=O)C(CC(=O)Nc2ccc(C)cc2)SC1=Nc1c(C)n(C)n(-c2ccccc2)c1=O (stereo unspecified) | – | inactive: -17.9% [at 46.1 µM] |
| O=C(CCCCCNc1nc(=S)[nH]c2ccccc12)NCc1ccccc1Cl | inconclusive [inhibitor, single point] | – |
| C=CCn1c(CCNC(=O)c2cccs2)nnc1SCC(=O)c1ccc(Cl)cc1 | – | inactive: -13% [at 46.1 µM] |

| SMILES | Potency | activity change, negative = inhibition |
| --- | --- | --- |
| O=c1c(-c2nc3ccccc3o2)c2oc3ccccc3n2c2ccccc12 | inconclusive [inhibitor, single point] | – |
| CCCN1Cc2cccc(C(=O)Nc3ccc(C)cc3)c2C1=O | inconclusive [inhibitor, partial curve, poor fit] | – |
| CC1CCN(S(=O)(=O)c2cccc(-c3nnc(-c4cccnc4)o3)c2)CC1 | inconclusive [inhibitor, single point] | – |
| O=C(O)Cn1nc(C(F)(F)F)c2c1CCCCC2 | inconclusive [inhibitor, single point] | – |
| CCCn1c(SCC(=O)Nc2ccc(OC)cc2)nnc1-c1ccncc1 | – | inactive: -4.75% [at 46.1 µM] |
| COc1ccc(C(=O)N=c2sc3c(C)ccc(OC)c3n2C)cc1OC | – | inactive: -46.4% |
| CCn1c(SCC(N)=O)nc2c(c1=O)C1(CCCC1)Cc1ccccc1-2 | inconclusive [inhibitor, partial curve] | – |
| CSc1ccccc1C(=O)C1CCCN(C(=O)c2csnn2)C1 (stereo unspecified) | – | inactive: -22% |
| Cc1nc(-c2ccccc2O)n(S(=O)(=O)N(C)C)n1 | inconclusive [activator, partial curve] | – |
| CCCC(=O)NCCc1c2n(c3ccc(OC)cc13)CCCc1ccccc1-2 | inconclusive [inhibitor, partial curve, poor fit] | – |
| COc1ccc(Cc2noc(CN(C)CC3CCN(Cc4ccccc4)CC3)n2)cc1OC | inconclusive [activator, single point] | – |
| Cc1ccc(C2NC(=O)c3c(sc4c3CCN(C)C4)N2)s1 (stereo unspecified) | – | inactive: -26.8% [at 46.1 µM] |
| CCC(C)(C)n1nnnc1C(c1cccs1)N1CCN(c2nc3ccccc3s2)CC1 (stereo unspecified) | inconclusive [inhibitor, partial curve] | – |
| CS(=O)(=O)N(CC(=O)NCc1ccco1)c1ccc(Cl)c(C(F)(F)F)c1 | inconclusive [inhibitor, single point] | – |
| N/C(=N\OC(=O)/C=C/c1ccccc1)c1cccnc1 | – | inactive: 7.03% |
| O=C(OCn1ncc(Br)c(Br)c1=O)c1ccccc1Cl | active: 2.51 µM | – |
| O=C1C2=C(NC(=S)NC2c2ccc(Cl)cc2)NC(c2ccc(Cl)cc2)N1c1ccc(Cl)cc1 (stereo unspecified) | inconclusive [inhibitor, single point] | – |
| CC(Sc1nc(NCc2ccccc2)nc(N(C)C)n1)C(=O)Nc1ccccc1 (stereo unspecified) | inconclusive [inhibitor, partial curve, poor fit] | – |
| Cc1ccc(S(=O)(=O)c2c(C)nn(C(C)(C)C)c2OC(=O)c2cccs2)cc1 | inconclusive [inhibitor, partial curve] | – |
| CC1=NN(C(=O)Cn2ccc([N+](=O)[O-])n2)C(O)(C(F)(F)F)C1 (stereo unspecified) | – | inactive: 11.9% |
| CC(C)CCn1c(SCCc2ccccc2)nc2c1c(=O)[nH]c(=O)n2C | – | inactive: -21.9% [at 46.1 µM] |
| CCOc1ccc(Br)cc1C1C(C(=O)OC)=C(N)Oc2cc(N(C)C)ccc21 (stereo unspecified) | inconclusive [inhibitor, single point] | – |
| CCOC(=O)c1[nH]c2c(c1-c1ccccc1)C(=O)CC(c1ccc(OC)c(OC)c1)C2 (stereo unspecified) | – | inactive: -11.4% |
| CCOc1ncccc1C(=O)OCC(=O)Nc1cccc(C(C)=O)c1 | inconclusive [inhibitor, single point] | – |

| SMILES | Potency | activity change, negative = inhibition |
| --- | --- | --- |
| O=C(CC(C(=O)O)C1CCCO1)NCc1ccccc1 (stereo unspecified) | – | inactive: -0.179% [at 46.1 µM] |
| CCc1ccc2nc(SCC(=O)NCC3CCCO3)c(C#N)cc2c1 (stereo unspecified) | inconclusive [inhibitor, single point] | – |
| O=C(Nc1cccc(Br)c1)c1ccc(Cl)c(S(=O)(=O)N2CCOCC2)c1 | inconclusive [inhibitor, partial curve, poor fit] | – |
| CCOC(=O)c1sc(NC(=O)Nc2ccccc2)cc1C | – | inactive: -25% |
| O=C(NNC(=S)Nc1ccc(Cl)c(Cl)c1)c1cccc([N+](=O)[O-])c1 | – | inactive: -0.72% |
| COc1ccc(CCNC2=C(Cl)C(=O)N(CCc3ccc(OC)c(OC)c3)C2=O)cc1OC | inconclusive [inhibitor, single point] | – |
| CCc1c(C)c(C#N)c2nc3ccccc3n2c1NCC1CCCO1 (stereo unspecified) | inconclusive [inhibitor, partial curve] | – |
| Cc1nc2cc(NC(=O)COc3ccc(C#N)cc3)ccc2n1-c1ccccc1 | inconclusive [inhibitor, partial curve, poor fit] | – |
| CCOC(=O)C1=C(N)OC2=C(C(=O)CCC2)C1c1cccnc1 (stereo unspecified) | – | inactive: 12.6% [at 46.1 µM] |
| CCc1ccc(-c2cc(C(=O)N3N=C(C(F)F)CC3(O)C(F)F)c3ccccc3n2)cc1 (stereo unspecified) | inconclusive [inhibitor, partial curve, poor fit] | – |
| CN(C)c1ncnc2c1NC1=C(S2)C(=NCCCC(=O)O)CC(C)(C)C1 | inconclusive [inhibitor, partial curve] | – |
| COc1ccc(CCNS(=O)(=O)c2ccc3c(c2)oc(=O)n3C)cc1OC | – | inactive: 9.74% [at 46.1 µM] |
| COc1ccccc1C(c1nnnn1Cc1ccco1)N1CCN(c2cccc(C)c2C)CC1 (stereo unspecified) | inconclusive [inhibitor, single point] | – |
| COc1ccc(NC(=O)/C=C/c2ccccc2)cn1 | – | inactive: 6.3% |
| Cc1ccc(-c2nc3cccnc3o2)cc1NC(=O)COc1ccc(C(C)(C)C)cc1 | inconclusive [inhibitor, single point] | – |
| COc1cc(NC(=O)Nc2ccccc2)c(OC)cc1NC(=O)CN1CCCCC1 | inconclusive [inhibitor, single point] | – |
| COc1ccccc1-c1nnn(CC#N)n1 | inconclusive [inhibitor, single point] | – |
| COc1cccc(C(=O)Nc2cccc(-c3nc4ncccc4o3)c2C)c1 | inconclusive [inhibitor, partial curve] | – |
| CC1(C)CC(=O)C2=C(C1)c1c(ccc3ccccc13)NC2c1ccc(Br)o1 (stereo unspecified) | inconclusive [inhibitor, single point] | – |
| O=S(=O)(NCCC1=CCCCC1)c1cccc2nsnc12 | inconclusive [inhibitor, single point] | – |
| CCCCCCCCCn1c2c(c(=N)c3c1CCC3)CCC2 | active: 7.94 µM | – |
| CCCOc1ccc(C(=O)Nc2nc(C)c(Cc3ccc4c(c3)OCO4)s2)cc1 | inconclusive [inhibitor, single point] | – |
| CC(C)C(c1nnnn1Cc1ccccc1)N(CCCO)Cc1cc2cc3c(cc2[nH]c1=O)OCO3 (stereo unspecified) | inconclusive [inhibitor, single point] | – |
